# In a collection of fitness landscapes (doi:10.1126/science.1257360):
# This is one part of the list.
# B1: PhoQ; a variant is named by its letters at X, in order, P23837 (parent)
# chain: MKKLLRLFFPLSLRVRFLLATAAVVLVLSLAYGMVALIGYSVSFDKTTFRLLRGESNLFYTLAKWENNKLHVELPENIDKQSPTMTLIYDENGQLLWAQRDVPWLMKMIQPDWLKSNGFHEIEADVNDTSLLLSGDHSIQQQLQEVREDDDDAEMTHSVAVNVYPATSRMPKLTIVVVDTIPVELKSSYMVWSWFIYVLSANLLLVIPLLWVAAWWSLRPIEALAKEVRELEEHNRELLNPATTRELTSLVRNLNRLLKSERERYDKYRTTLTDLTHSLKTPLXXLQXXLRSLRSEKMSVSDAEPVMLEQISRISQQIGYYLHRASMRGGTLLSRELHPVAPLLDNLTSALNKVYQRKGVNISLDISPEISFVGEQNDFVEVMGNVLDNACKYCLEFVEISARQTDEHLYIVVEDDGPGIPLSKREVIFDRGQRVDTLRPGQGVGLAVAREITEQYEGKIVAGESMLGGARMEVIFGRQHSAPKDE
# Variants of: B1
# Assay: enrichment ratio after two sorts for PhoP signalling (ratio (wild type AVST 3.29)); higher = more functional
# Details: with PhoP (E. coli)
row,Variant,enrichment ratio
1,FIRL,≤ 0.25
2,MLRV,≤ 0.25
3,TQWY,1.8
4,DAEA,0.279
5,KCVR,≤ 0.25
6,EFMD,≤ 0.25
7,LSIP,≤ 0.25
8,MFGT,≤ 0.25
9,DRVD,≤ 0.25
10,KTKK,≤ 0.25
11,WDIR,≤ 0.25
12,MKDA,≤ 0.25
13,FKAY,≤ 0.25
14,IPHR,≤ 0.25
15,DWHH,≤ 0.25
16,EHPV,≤ 0.25
17,MVVA,≤ 0.25
18,AGPT,≤ 0.25
19,IWYL,≤ 0.25
20,APNF,≤ 0.25
21,HTYP,≤ 0.25
22,SRFC,≤ 0.25
23,LVCL,≤ 0.25
24,ENDR,≤ 0.25

row,Variant,enrichment ratio
1,PNIH,≤ 0.25
2,VQED,≤ 0.25
3,FIFD,≤ 0.25
4,DCMY,≤ 0.25
5,HYMP,≤ 0.25
6,ADEF,≤ 0.25
7,ACYC,0.489
8,PHMM,≤ 0.25
9,RSIK,≤ 0.25
10,QQRD,≤ 0.25
11,RQLE,≤ 0.25
12,DYHQ,≤ 0.25
13,EMLK,≤ 0.25
14,FQPN,≤ 0.25
15,THDH,≤ 0.25
16,VERF,≤ 0.25
17,SDMM,1.67
18,AKYP,≤ 0.25
19,LQMY,≤ 0.25
20,QCNL,≤ 0.25
21,ETGS,≤ 0.25
22,PHED,≤ 0.25
23,INYH,1.2
24,WMID,≤ 0.25

row,Variant,enrichment ratio
1,GKNG,≤ 0.25
2,DFHH,≤ 0.25
3,NSAY,≤ 0.25
4,KVDR,≤ 0.25
5,FVRC,≤ 0.25
6,SGGF,1.06
7,YKFE,≤ 0.25
8,SRSP,≤ 0.25
9,TAKP,≤ 0.25
10,ETYM,≤ 0.25
11,LILT,≤ 0.25
12,EVFK,≤ 0.25
13,IVYA,≤ 0.25
14,APYG,≤ 0.25
15,SRIL,4.63
16,EQTC,≤ 0.25
17,NEWI,≤ 0.25
18,AQKT,≤ 0.25
19,DPGG,≤ 0.25
20,ILFE,≤ 0.25
21,EVTH,≤ 0.25
22,YLRS,≤ 0.25
23,FNPE,≤ 0.25
24,TAHC,5.41

row,Variant,enrichment ratio
1,TPND,≤ 0.25
2,DDHK,≤ 0.25
3,RKFQ,≤ 0.25
4,NMRI,≤ 0.25
5,LQGE,≤ 0.25
6,MMLG,≤ 0.25
7,KNKF,≤ 0.25
8,IQGW,≤ 0.25
9,EIFL,0.954
10,DSYV,≤ 0.25
11,FPFC,≤ 0.25
12,TVML,1.47
13,PNGF,≤ 0.25
14,PVCI,≤ 0.25
15,ALWI,≤ 0.25
16,WSFI,≤ 0.25
17,SIFE,≤ 0.25
18,SDSN,≤ 0.25
19,DCCS,≤ 0.25
20,GNDF,≤ 0.25
21,KLAA,≤ 0.25
22,DYDT,≤ 0.25
23,NHLF,≤ 0.25
24,SACP,≤ 0.25

row,Variant,enrichment ratio
1,EYVY,≤ 0.25
2,SDNA,≤ 0.25
3,NYCN,≤ 0.25
4,HCMK,≤ 0.25
5,TRGA,≤ 0.25
6,DVDP,≤ 0.25
7,VKEW,≤ 0.25
8,EMPW,≤ 0.25
9,AHEF,≤ 0.25
10,SRGF,0.392
11,YWFD,≤ 0.25
12,YSYD,≤ 0.25
13,VTQP,0.521
14,RRPW,≤ 0.25
15,RVQV,≤ 0.25
16,VELP,≤ 0.25
17,SRSF,≤ 0.25
18,IRVI,≤ 0.25
19,CMCV,≤ 0.25
20,FSIA,≤ 0.25
21,AWHE,≤ 0.25
22,YEDF,≤ 0.25
23,FIVY,≤ 0.25
24,TYLN,≤ 0.25

row,Variant,enrichment ratio
1,YWEC,≤ 0.25
2,IMWH,≤ 0.25
3,QYKS,≤ 0.25
4,VQNG,≤ 0.25
5,YHNY,≤ 0.25
6,PGSS,0.567
7,LLRS,≤ 0.25
8,HMKS,≤ 0.25
9,TQDR,≤ 0.25
10,TKIG,1.16
11,HHQC,≤ 0.25
12,WECC,≤ 0.25
13,NYAE,≤ 0.25
14,SDRM,≤ 0.25
15,FFWY,≤ 0.25
16,PFVS,≤ 0.25
17,NARD,≤ 0.25
18,ESGM,≤ 0.25
19,VFWW,≤ 0.25
20,RSTM,≤ 0.25
21,WEWN,≤ 0.25
22,FSLT,7.83
23,EFTT,≤ 0.25
24,EVKC,≤ 0.25

row,Variant,enrichment ratio
1,HCRK,≤ 0.25
2,RECP,≤ 0.25
3,DDYT,≤ 0.25
4,FFHQ,≤ 0.25
5,TTLI,12.4
6,WMML,≤ 0.25
7,QKKI,≤ 0.25
8,LVDK,≤ 0.25
9,YIME,≤ 0.25
10,NPNH,≤ 0.25
11,TSCF,9.88
12,TYYE,≤ 0.25
13,HCFN,≤ 0.25
14,NRYM,≤ 0.25
15,RMIE,≤ 0.25
16,AYHN,≤ 0.25
17,QTDW,≤ 0.25
18,KVMC,≤ 0.25
19,FMHI,≤ 0.25
20,GYGT,≤ 0.25
21,NQLT,≤ 0.25
22,AMRW,≤ 0.25
23,ETNM,≤ 0.25
24,AGCP,≤ 0.25

row,Variant,enrichment ratio
1,ADGT,≤ 0.25
2,YTTE,≤ 0.25
3,SNAI,22
4,AHLL,9.28
5,EMRS,≤ 0.25
6,MCHR,≤ 0.25
7,NEPH,≤ 0.25
8,HACM,≤ 0.25
9,ISVL,0.465
10,DEQW,≤ 0.25
11,NATG,≤ 0.25
12,NGSF,≤ 0.25
13,IRRP,≤ 0.25
14,CSEP,≤ 0.25
15,PQYY,≤ 0.25
16,NPFK,≤ 0.25
17,ERLW,≤ 0.25
18,PCLN,≤ 0.25
19,FEHT,≤ 0.25
20,VYCW,≤ 0.25
21,FSLF,4.86
22,FQPG,≤ 0.25
23,LWGN,≤ 0.25
24,STKG,≤ 0.25

row,Variant,enrichment ratio
1,MTKV,≤ 0.25
2,YKKQ,≤ 0.25
3,NQVA,≤ 0.25
4,RIYM,≤ 0.25
5,GLKD,≤ 0.25
6,SSWC,≤ 0.25
7,SYHV,≤ 0.25
8,AQMI,≤ 0.25
9,NHQL,≤ 0.25
10,MSGM,6.76
11,FPIL,≤ 0.25
12,ANHR,≤ 0.25
13,IGVG,≤ 0.25
14,LGHN,≤ 0.25
15,WEDR,≤ 0.25
16,NYIL,≤ 0.25
17,DCPF,≤ 0.25
18,RHKH,≤ 0.25
19,PRQT,≤ 0.25
20,STTA,4.08
21,IFGT,≤ 0.25
22,DLRC,≤ 0.25
23,QTGS,0.628
24,YRGP,≤ 0.25

row,Variant,enrichment ratio
1,FMRA,≤ 0.25
2,FNFI,≤ 0.25
3,PWTV,≤ 0.25
4,DFNY,≤ 0.25
5,SPNM,≤ 0.25
6,PVDQ,≤ 0.25
7,GEMD,≤ 0.25
8,GHHY,≤ 0.25
9,YDIL,≤ 0.25
10,NHQY,≤ 0.25
11,ACIH,1.36
12,YKGY,≤ 0.25
13,NIGV,≤ 0.25
14,NIAR,≤ 0.25
15,FRWQ,≤ 0.25
16,ENVH,≤ 0.25
17,WMCS,≤ 0.25
18,HHIQ,≤ 0.25
19,AASM,8.59
20,HRED,≤ 0.25
21,WKSC,≤ 0.25
22,AHCS,≤ 0.25
23,NKGD,≤ 0.25
24,DEIH,≤ 0.25

row,Variant,enrichment ratio
1,DHAS,≤ 0.25
2,EAWQ,≤ 0.25
3,KREV,≤ 0.25
4,AEEN,≤ 0.25
5,GHYN,≤ 0.25
6,TPAG,≤ 0.25
7,MHRK,≤ 0.25
8,TEYI,8.43
9,MITA,≤ 0.25
10,LCTP,≤ 0.25
11,TRWI,≤ 0.25
12,NKDD,≤ 0.25
13,FDFD,≤ 0.25
14,PITY,≤ 0.25
15,NDCG,≤ 0.25
16,NNDR,≤ 0.25
17,LWMK,≤ 0.25
18,GRYQ,≤ 0.25
19,TAME,15.7
20,YDRG,≤ 0.25
21,RTGQ,≤ 0.25
22,WDSG,≤ 0.25
23,VMSE,≤ 0.25
24,KYNM,≤ 0.25

row,Variant,enrichment ratio
1,RKHN,≤ 0.25
2,RTRC,≤ 0.25
3,HYLF,≤ 0.25
4,YQTA,≤ 0.25
5,YTVY,≤ 0.25
6,AQVW,≤ 0.25
7,WVFI,≤ 0.25
8,DGIT,≤ 0.25
9,NLSF,≤ 0.25
10,NPRA,≤ 0.25
11,YDKS,≤ 0.25
12,VGHF,≤ 0.25
13,HEAW,≤ 0.25
14,IAEF,≤ 0.25
15,FSVE,≤ 0.25
16,RKKV,≤ 0.25
17,MFWK,≤ 0.25
18,IYTP,≤ 0.25
19,KGSP,≤ 0.25
20,MVYL,6.13
21,FFFW,≤ 0.25
22,FANS,≤ 0.25
23,FAVI,≤ 0.25
24,SDPQ,≤ 0.25

row,Variant,enrichment ratio
1,GKQD,≤ 0.25
2,TFTG,13.3
3,YLGW,0.309
4,IYPC,≤ 0.25
5,NVMH,≤ 0.25
6,DYIS,≤ 0.25
7,SEAG,12.1
8,IHCH,≤ 0.25
9,RLPT,≤ 0.25
10,FTSK,≤ 0.25
11,WRFR,≤ 0.25
12,LRGW,≤ 0.25
13,HNNW,≤ 0.25
14,MQFV,1.09
15,KSTK,≤ 0.25
16,RMSC,≤ 0.25
17,IREC,≤ 0.25
18,QDLH,≤ 0.25
